Measured values as given in the supplement of paper PMC4967469.
The IC50 comes from the fitted curve, where viability falls to half of the control; where the fit passes the top or lowest dose, that dose stands as a limit. AUC, from the same fit, is the share of area under the viability curve across the 256-fold dose range; it is 1 without any effect and falls as sensitivity rises. For some assays here: Any top dose called inferred comes from the curve model; the source does not state it. For some assays here: An entry number marks a drug with two screens in the source, which often give different values.

Key:
Experiment in all cases: Viability of human cancer cell lines after 72 h of drug (GDSC screen)
Belinostat = compound: O=C(/C=C/c1cccc(S(=O)(=O)Nc2ccccc2)c1)NO [Belinostat]; settings: top dose 20 µM; top dose inferred
Protocol: (§1)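 Human cancer cell lines in 384-well plates, medium with 10% serum, drug for 72 h over a 256-fold dose range (nine 2-fold or five 4-fold steps up to the top dose). Adherent lines were fixed and stained with the nucleic acid dye Syto60, suspension lines read with resazurin; signal relative to control wells, capped at 0 and 100%. One two-parameter sigmoid per drug and line, fitted in a mixed model over all curves with the slope shared within a line.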

Docetaxel = compound: CC(=O)O[C@@]12CO[C@@H]1C[C@H](O)[C@@]1(C)C(=O)[C@H](O)C3=C(C)[C@@H](OC(=O)[C@H](O)[C@@H](NC(=O)OC(C)(C)C)c4ccccc4)C[C@@](O)([C@@H](OC(=O)c4ccccc4)[C@H]21)C3(C)C [Docetaxel]; settings: top dose 0.0125 µM
Protocol: as §1

NSC-207895 = compound: CN1CCN(c2ccc([N+](=O)[O-])c3no[n+]([O-])c23)CC1 [NSC-207895]; settings: top dose 20 µM; top dose inferred
Protocol: as §1

OSI-906 = compound: C[C@]1(O)C[C@@H](c2nc(-c3ccc4ccc(-c5ccccc5)nc4c3)c3c(N)nccn32)C1 [OSI-906]; settings: top dose 2.56 µM; top dose inferred
Protocol: as §1

JNK Inhibitor VIII = compound: CCOc1nc(NC(=O)Cc2cc(OC)ccc2OC)cc(N)c1C#N [JNK Inhibitor VIII]; settings: top dose 10 µM; top dose inferred
Protocol: as §1

SB-715992 = compound: Cc1ccc(C(=O)N(CCCN)[C@@H](c2nc3cc(Cl)ccc3c(=O)n2Cc2ccccc2)C(C)C)cc1 [SB-715992]; settings: top dose 0.128 µM; top dose inferred
Protocol: as §1

YM155 = compound: COCC[n+]1c2c(n(Cc3cnccn3)c1C)C(=O)c1ccccc1C2=O [YM155]; settings: top dose 5.12 µM
Protocol: as §1

AMG-706 = compound: CC1(C)CNc2cc(NC(=O)c3cccnc3NCc3ccncc3)ccc21 [AMG-706]; settings: top dose 2 µM; top dose inferred
Protocol: as §1

JQ1 = compound: Cc1sc2c(c1C)C(c1ccc(Cl)cc1)=N[C@@H](CC(=O)OC(C)(C)C)c1nnc(C)n1-2 [JQ1]
Protocol: as §1

FTI-277 = compound: COC(=O)[C@H](CCSC)NC(=O)c1ccc(NC[C@@H](N)CS)cc1-c1ccccc1 [FTI-277]; settings: top dose 1.024 µM; top dose inferred
Protocol: as §1

JNJ-26854165 = compound: c1ccc2c(CCNc3ccc(Nc4ccncc4)cc3)c[nH]c2c1 [JNJ-26854165]; settings: top dose 10 µM
Protocol: as §1

[1] = top dose 1 µM, screen: GDSC drug entry 1218, top dose inferred
[2] = top dose 2.56 µM, screen: GDSC drug entry 163

| Cell Line | AUC (Belinostat) | IC50 (Belinostat) | AUC (Docetaxel) | IC50 (Docetaxel) | AUC (NSC-207895) | IC50 (NSC-207895) | AUC (OSI-906) | IC50 (OSI-906) | AUC (JNK Inhibitor VIII) | IC50 (JNK Inhibitor VIII) | AUC (SB-715992) | IC50 (SB-715992) | AUC (YM155) | IC50 (YM155) | AUC (AMG-706) | IC50 (AMG-706) | AUC (JQ1; [1]) | IC50 (JQ1; [1]) | AUC (JQ1; [2]) | IC50 (JQ1; [2]) | AUC (FTI-277) | IC50 (FTI-277) | AUC (JNJ-26854165) | IC50 (JNJ-26854165) |
| --- | --- | --- | --- | --- | --- | --- | --- | --- | --- | --- | --- | --- | --- | --- | --- | --- | --- | --- | --- | --- | --- | --- | --- | --- |
| MDA-MB-330 (breast, adherent) | 0.444 | 0.86 µM | 0.93 | > 0.0125 µM | 0.974 | > 20 µM | 0.918 | > 2.56 µM | 0.978 | > 10 µM | 0.967 | > 0.128 µM | 0.275 | 0.0663 µM | 0.934 | > 2 µM | 0.984 | > 1 µM | 0.561 | 0.241 µM | 0.973 | > 1.02 µM |  |  |
| NCI-H810 (large cell lung carcinoma, adherent) | 0.181 | 0.145 µM | 0.811 | 0.00629 µM | 0.93 | > 20 µM | 0.887 | > 2.56 µM | 0.988 | > 10 µM | 0.777 | 0.0492 µM | 0.063 | < 0.02 µM | 0.983 | > 2 µM | 0.987 | > 1 µM | 0.591 | 0.281 µM | 0.978 | > 1.02 µM |  |  |
| NCI-H838 (lung adenocarcinoma, adherent) | 0.475 | 1.07 µM | 0.699 | 0.00291 µM | 0.966 | > 20 µM | 0.846 | 1.97 µM | 0.967 | > 10 µM | 0.985 | > 0.128 µM | 0.045 | < 0.02 µM | 0.974 | > 2 µM |  |  |  |  | 0.978 | > 1.02 µM |  |  |
| NCI-H1688 (small cell lung carcinoma, adherent) | 0.307 | 0.337 µM | 0.92 | > 0.0125 µM | 0.962 | > 20 µM | 0.96 | > 2.56 µM | 0.813 | 6.13 µM | 0.945 | > 0.128 µM |  |  | 0.901 | > 2 µM | 0.977 | > 1 µM | 0.718 | 0.712 µM | 0.986 | > 1.02 µM | 0.875 | > 10 µM |
| OE33 (oesophagus, adherent) | 0.611 | 2.67 µM | 0.819 | 0.00889 µM | 0.895 | > 20 µM | 0.97 | > 2.56 µM | 0.981 | > 10 µM | 0.973 | > 0.128 µM |  |  | 0.984 | > 2 µM | 0.982 | > 1 µM | 0.729 | 0.825 µM | 0.95 | > 1.02 µM | 0.833 | 8.24 µM |
| PCI-30 (head and neck, adherent) | 0.805 | 12.9 µM | 0.888 | > 0.0125 µM | 0.983 | > 20 µM | 0.872 | > 2.56 µM | 0.98 | > 10 µM | 0.985 | > 0.128 µM |  |  | 0.973 | > 2 µM | 0.982 | > 1 µM | 0.979 | > 2.56 µM | 0.984 | > 1.02 µM | 0.913 | > 10 µM |
| RPMI-7951 (melanoma, adherent) |  |  | 0.466 | 0.000632 µM | 0.758 | 6.73 µM | 0.987 | > 2.56 µM | 0.963 | > 10 µM | 0.712 | 0.0311 µM | 0.023 | < 0.02 µM | 0.968 | > 2 µM |  |  | 0.905 | > 2.56 µM | 0.964 | > 1.02 µM | 0.86 | 7.99 µM |
| SK-MEL-3 (melanoma, adherent) |  |  | 0.9 | > 0.0125 µM | 0.93 | > 20 µM | 0.751 | 0.959 µM | 0.984 | > 10 µM | 0.974 | > 0.128 µM | 0.128 | < 0.02 µM | 0.979 | > 2 µM | 0.983 | > 1 µM | 0.775 | 1.18 µM | 0.976 | > 1.02 µM | 0.9 | > 10 µM |
| SW626 (ovary, adherent) |  |  | 0.803 | 0.00763 µM | 0.934 | > 20 µM | 0.945 | > 2.56 µM | 0.983 | > 10 µM | 0.697 | 0.0319 µM | 0.157 | 0.0219 µM | 0.954 | > 2 µM | 0.981 | > 1 µM | 0.652 | 0.459 µM | 0.951 | > 1.02 µM | 0.922 | > 10 µM |
| T98G (glioma, adherent) | 0.74 | 5.68 µM | 0.615 | 0.00158 µM | 0.974 | > 20 µM | 0.99 | > 2.56 µM | 0.986 | > 10 µM | 0.934 | > 0.128 µM |  |  | 0.978 | > 2 µM | 0.989 | > 1 µM | 0.765 | 0.87 µM | 0.987 | > 1.02 µM | 0.834 |  |
| T-T (oesophagus, adherent) | 0.834 | 13 µM | 0.524 | 0.000908 µM | 0.876 | 19.8 µM | 0.865 | 2.24 µM | 0.963 | > 10 µM | 0.944 | > 0.128 µM |  |  | 0.98 | > 2 µM | 0.985 | > 1 µM | 0.527 | 0.189 µM | 0.968 | > 1.02 µM | 0.879 | > 10 µM |
| YKG-1 (glioma, adherent) | 0.754 | 6.81 µM | 0.525 | 0.000917 µM | 0.907 | > 20 µM | 0.987 | > 2.56 µM | 0.965 | > 10 µM | 0.618 | 0.017 µM |  |  | 0.986 | > 2 µM | 0.985 | > 1 µM | 0.672 | 0.486 µM | 0.987 | > 1.02 µM | 0.85 | 7.77 µM |
